These are yes or no findings as the source states them, for the method shown. In cells and extracts the contact can be indirect. Some results given as binding are weak or reduced against the parent protein; the word gives no strength.
B1: SUN3 (protein, UniProt F4I316 1-660)
chain: MQRSCRTRRRVSVNKFNGRNSFYKVSLSLVFLLWVLLFFSTLLISHGDGAKDEPLNDSMGMADPDDGQSDEKVVPFDGPLSLASASVDVTSDLSRNDDVNLSEESEDKEQEAEISSTVSGNDIESKDTYLLKQSEINKKDTGIDAGSKYDDFPKKSEINNTGTWNDTEGKDDNNFLKQSQLNKTGTGNDTESSDNEFLEQNQMNKTVLGNGTEINVSKVDQPSRAVPLGLDEFKSRASNSRNKSLSDQVSGVIHRMEPGGKEYNYASASKGAKVLSSNKEAKGAASILSRDNDKYLRNPCSTEGKFVVVELSEETLVNTIKIANFEHYSSNLKEFELQGTLVYPTDTWVHMGNFTASNVKHEQNFTLLEPKWVRYLKLNFISHYGSEFYCTLSLIEVYGVDAVERMLEDLISVQDNKNAYKPREGDSEHKEKPMQQIESLEGDDGADKSTHREKEKEAPPENMLAKTEASMAKSSNKLSEPVEEMRHHQPGSRMPGDTVLKILMQKLRSLDLNLSILERYLEELNLRYGNIFKEMDREAGVREKAIVALRLDLEGMKERQEGMVSEAEEMKEWRKRVEAEMEKAEKEKENIRQSLEQVSKRLEWMEKKCLTVFTVCLGFGIIAVIAVVIGMGTGLAEKTGSGAWLLLLISSTFIMFVLSL
B2: SUN4 (protein, UniProt F4I8I0 1-596)
chain: MQRSRRALLVRRRVSETTSNGRNRFYKVSLSLVFLIWGLVFLSTLWISHVDGDKGRSLVDSVEKGEPDDERADETAESVDATSLESTSVHSNPGLSSDVDIAAAGESKGSETILKQLEVDNTIVIVGNVTESKDNVPMKQSEINNNTVPGNDTETTGSKLDQLSRAVPLGLDEFKSRASNSRDKSLSGQVTGVIHRMEPGGKEYNYAAASKGAKVLSSNKEAKGASSIICRDKDKYLRNPCSTEGKFVVIELSEETLVNTIKIANFEHYSSNLKDFEILGTLVYPTDTWVHLGNFTALNMKHEQNFTFADPKWVRYLKLNLLSHYGSEFYCTLSLLEVYGVDAVERMLEDLISIQDKNILKLQEGDTEQKEKKTMQAKESFESDEDKSKQKEKEQEASPENAVVKDEVSLEKRKLPDPVEEIKHQPGSRMPGDTVLKILMQKIRSLDVSLSVLESYLEERSLKYGMIFKEMDLEASKREKEVETMRLEVEGMKEREENTKKEAMEMRKWRMRVETELEKAENEKEKVKERLEQVLERLEWMEKKGVVVFTICVGFGTIAVVAVVFGMGIVRAEKQGGLAWLLLLISSTFVMFILSL
B3: SUN5 (protein, UniProt F4JPE9 1-561)
chain: MARRGSCSTICLNEKLQRFRIVRISDKADNFNSRSGSFFERSISLVLLLWCFLFLVYSKLGQSHDDYGNADRIGNYTDGSVSKTLNSTSSVFPQATEKENNFCLLRKGQLQDVYEHVLVNNALLICKVVLPERRISKKTLEARDPRYVNLEDKSLKVNGSSQLVNNGTRYRLEPDGNGYNYASAMKGAKVVDHNKEAKGASNVLGKDHDKYLRNPCSVSDKYVVIELAEETLVDTVRIANFEHYSSNPKEFSLSGSLSFPSDMWTPAGSFAAANVKQIQSFRLPEPKWLRYLKLNLVSHYGSEFYCTLSVVEVFGIDALEQMLEDLFVPSETPPSKPAMVELKTADEKQDGEIKSNRTDQIGKETEAQKKKDDVVKTINIIGDKKYEVKEKHNVLKVMMQKVKLIEMNLSLLEDSVKKMNDKQPEVSLEMKKTLVLVEKSKADIREITEWKGKMEKELRDLELWKTLVASRVESLARGNSALRLDVEKIVKEQANLESKELGVLLISLFFVVLATIRLVSTRLWAFLGMSITDKARSLWPDSGWVMILLSSSIMIFIHLLS
B4: POLLEN … IN GUIDANCE1 (POD1) (protein, UniProt F4HVJ3 1-624)
chain: MAIRSSGRKLSFEILSQNSSFENDDTSIRRSSSDPITGNVASESPRDYGKRKRSKKKKKKVNQVETILENGDSHSTIITGSSGDFGETTTMFENRLNYYGGGGSGSSGGGCVVTLLDGQTVHHNGFNFGELRQRNVNGSVDGSNDERWSDTLSSDKKLYMEETSVELSPSENPPFQEVQHQFPRSEINGNVVRRLDTEASLDWKQLVADDPDFLSAETRSPMKYFMEEIYGGISLRSTTTPGNDIERERIYDTIFRLPWRCEVLIDTGFFVCVNSFLSLLTVMPIRVLLIFMDAFKNRQFRRPSASELSDLACFLVLATGTILLGRTDISLIYHMIRGQSTIKLYVVYNILEIFDRLCQSFCGDVFGALFSSAKGLSISPPEKLRFSTWRFVSDLALTMAASILHSFILLAQAITLSTCIVAHNNALLALLVSNNFAEIKSSVFKRFSKDNIHGLVYADSIERFHISAFLVSVLAQNILESEGAWFGNFIYNATTVFFCEMMIDIIKHSFLAKFNDIKPIAYSEFLQALCEQTLNIRPEDRKTNLTFVPLAPACVVIRVLTPVYAAHLPYSPLPWRMLWMVILFVITYIMLTSLKVLIGMGLRKHATWYINRCRRRNSSHLHND

Chains of the proteins cited; added tags and fusions are not shown. Residues count along the entry.
UniProt Q38858, residues 23-424: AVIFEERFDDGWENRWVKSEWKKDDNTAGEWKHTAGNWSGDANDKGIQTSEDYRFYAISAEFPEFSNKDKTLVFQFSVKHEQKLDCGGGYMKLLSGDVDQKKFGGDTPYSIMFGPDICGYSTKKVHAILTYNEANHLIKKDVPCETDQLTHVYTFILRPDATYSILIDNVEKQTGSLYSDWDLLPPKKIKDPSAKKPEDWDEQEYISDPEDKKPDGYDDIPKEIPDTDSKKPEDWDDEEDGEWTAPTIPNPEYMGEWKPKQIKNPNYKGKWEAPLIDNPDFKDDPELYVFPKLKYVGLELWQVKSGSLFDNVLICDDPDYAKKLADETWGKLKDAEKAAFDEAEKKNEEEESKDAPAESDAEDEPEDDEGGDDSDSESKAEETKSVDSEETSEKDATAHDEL
UniProt O04153, residues 29-424: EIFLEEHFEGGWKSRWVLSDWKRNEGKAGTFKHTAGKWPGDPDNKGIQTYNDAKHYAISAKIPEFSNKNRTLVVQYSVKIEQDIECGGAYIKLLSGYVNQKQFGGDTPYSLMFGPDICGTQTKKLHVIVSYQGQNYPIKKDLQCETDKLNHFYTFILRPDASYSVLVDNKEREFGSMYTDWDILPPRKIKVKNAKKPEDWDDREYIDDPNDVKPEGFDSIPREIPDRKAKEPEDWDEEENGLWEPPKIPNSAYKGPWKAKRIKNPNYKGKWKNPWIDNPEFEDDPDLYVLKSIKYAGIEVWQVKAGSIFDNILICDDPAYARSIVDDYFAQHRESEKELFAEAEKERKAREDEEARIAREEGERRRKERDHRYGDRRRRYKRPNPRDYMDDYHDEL

Tests used:
Assay in all cases: co-IP; Arabidopsis (leaf) protoplasts transformed with the indicated plasmids, cultured 16 h, lysed in extracting buffer (40 mM PIPES pH 7.4, 8 mM EGTA, 1 mM MgCl2, 0.33 M sucrose, 1 mM DTT, 1% Triton X-100); supernatant incubated with anti-Myc or anti-GFP agarose 4 h at 4 °C; blots with anti-GFP and anti-Myc; for SUN4 with CRT3 also after tunicamycin treatment of the protoplasts
[1] = molecular target: T1, CNX1 (Arabidopsis thaliana) (UniProt P29402)
T1 sequence: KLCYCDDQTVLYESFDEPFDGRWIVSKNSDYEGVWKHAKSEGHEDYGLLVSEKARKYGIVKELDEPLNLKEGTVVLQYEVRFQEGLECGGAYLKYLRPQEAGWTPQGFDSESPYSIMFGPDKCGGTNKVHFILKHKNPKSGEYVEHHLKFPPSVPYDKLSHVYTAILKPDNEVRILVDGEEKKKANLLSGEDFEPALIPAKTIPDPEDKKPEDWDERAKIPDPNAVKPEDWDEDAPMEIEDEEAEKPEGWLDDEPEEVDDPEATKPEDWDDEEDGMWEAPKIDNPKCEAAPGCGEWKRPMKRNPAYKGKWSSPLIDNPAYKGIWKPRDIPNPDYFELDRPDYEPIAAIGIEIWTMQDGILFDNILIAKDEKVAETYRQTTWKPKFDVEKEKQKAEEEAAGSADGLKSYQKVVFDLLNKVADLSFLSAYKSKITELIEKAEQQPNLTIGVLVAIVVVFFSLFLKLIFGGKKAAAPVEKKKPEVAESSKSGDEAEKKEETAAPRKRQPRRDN

[2] = molecular target: T2, POLLEN … IN GUIDANCE1 (POD1) (Arabidopsis thaliana) (UniProt F4HVJ3)
T2 sequence: B4 chain

[3] = molecular target: CRT2 (Arabidopsis thaliana) (UniProt Q38858)
[4] = molecular target: CRT3 (Arabidopsis thaliana) (UniProt O04153)

| Binder | binding [1] | binding [2] | binding [3] | binding [4] |
| --- | --- | --- | --- | --- |
| B1 | no binding | binds |  |  |
| B2 | no binding | binds | no binding | binds |
| B3 | no binding | binds |  |  |
| B4 |  |  |  | binds |

Reference: PMC9110389
